Assay results taken from PubChem BioAssay AID1159614 (National Center for Advancing Translational Sciences (NCATS), 2016).
The campaign covered roughly 45,000 compounds. About 65 (0.1%) were called active. Calls follow the shape of the dose curve; as a rule, active = well fitted activation curve with a large enough effect; inconclusive = small, poorly fitted or top-dose-only effect; inactive = no such curve, though single readings can be large or run the other way. Some of the results follow.

Target: Galactocerebrosidase (Homo sapiens) (UniProt P54803)
UniProt P54803, sequence (P54803 whole entry, looked up): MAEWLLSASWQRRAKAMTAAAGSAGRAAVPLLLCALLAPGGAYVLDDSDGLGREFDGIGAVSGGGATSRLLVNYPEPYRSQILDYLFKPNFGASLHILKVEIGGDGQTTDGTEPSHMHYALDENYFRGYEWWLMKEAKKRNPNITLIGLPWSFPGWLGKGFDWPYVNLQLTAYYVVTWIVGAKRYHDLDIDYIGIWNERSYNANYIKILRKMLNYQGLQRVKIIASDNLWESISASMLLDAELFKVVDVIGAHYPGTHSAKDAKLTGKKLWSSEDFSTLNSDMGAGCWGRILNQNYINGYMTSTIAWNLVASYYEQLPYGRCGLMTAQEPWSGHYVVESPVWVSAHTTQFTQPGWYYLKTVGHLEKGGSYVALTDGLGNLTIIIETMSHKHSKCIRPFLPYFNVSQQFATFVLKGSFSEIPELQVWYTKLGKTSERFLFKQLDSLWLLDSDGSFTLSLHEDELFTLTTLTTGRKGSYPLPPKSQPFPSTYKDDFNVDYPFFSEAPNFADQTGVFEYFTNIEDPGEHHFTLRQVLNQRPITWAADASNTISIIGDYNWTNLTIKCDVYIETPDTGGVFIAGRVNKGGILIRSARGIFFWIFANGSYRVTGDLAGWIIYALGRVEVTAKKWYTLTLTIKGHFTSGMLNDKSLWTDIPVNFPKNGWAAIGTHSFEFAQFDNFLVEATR
Assay: A Novel Cell-Based Assay to Identify Small Molecules for B -Galactocerebrosidase; also: 0% is about no effect; nearly all actives have a fitted effect of over 65% in size
Conditions: 145M-Twi-hGALC-G270D cells (Twitcher mouse brain line with human GALC G270D), HMU-beta-Gal fluorescence, 48 h; series mostly up to 57.5 µM; activation: at the top concentration
Outline: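 Fluorescence readout: HMU-β-gal cleavage by mutant GALC (0.1 mM final, citrate/phosphate pH 5.2 with 1 mg/mL taurocholate), stopped with carbonate/bicarbonate plus Triton X-100. Cells: murine Twitcher 145M-Twi expressing human G270D GALC; qHTS for activators.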

activation, inactive:
CN(C)c1ccc(-c2nnc3n(Cc4ccccc4)c(=O)c4ccccc4n23)cc1 -17.6%
c1ccc(CN(CC2=NCCN2)c2ccccc2)cc1 -12.6%
CC(=O)c1cccc(NC(=O)Cn2c(=O)oc3cc(S(=O)(=O)N4CCCC4)ccc32)c1 -2.37%
CCOc1ccc(CCNC(=O)CN2C(=O)COc3ccc(S(=O)(=O)N4CCCCCC4)cc32)cc1 -12.7%
CCC(=O)C1=C(c2ccc(OC)c(OC)c2)N(C(=O)CC)n2c(CC)nnc2S1 -12.2%
Cc1ccc(NC(=O)c2c(NC(=O)Cc3ccccc3)sc3c2CCCC3)cc1 -9.31%
CC(=O)Nc1ccc(NC(=O)CCSCCc2ccccn2)cc1 -30.3%
Cc1ccc2oc(=O)c3cc(C(=O)N4CCN(c5ccccc5F)CC4)sc3c2c1 -3.54%
O=S(=O)(Nc1cc(F)ccc1F)c1ccc2[nH]c3c(c2c1)CCCCC3 -11.8%
CC(C)(C)c1ccc(Oc2ccc(NC(=O)CCC(=O)OCC(=O)c3ccccc3)cc2)cc1 -10.7%
CN(C)c1ccc(CNC(=O)c2ccc(NC(=O)N3CCCCc4ccccc43)cc2)cc1 -7.44%
COc1ccc(-n2c(SCC(=O)Nc3cccc(C)c3C)nc3c([nH]c4ccccc43)c2=O)cc1 -6.27%
N#Cc1c(-n2ncnc2-c2cccc(Br)c2)sc2c1CCCCC2 -11.9%
CCc1ccccc1NC(=O)C1CCN(c2cnccn2)CC1 -11%
Cc1ccc(Cl)cc1N1CCN(C(=O)CCCn2c(=O)[nH]c3ccc(Br)cc3c2=O)CC1 -1.51%
CC(C)CCn1nnc2sc(-c3ccccc3)cc2c1=O -3.8%
O=C(NCCS(=O)(=O)N1CCN(c2ccc(F)cc2)CC1)c1cccc(C(F)(F)F)c1 -4.63%
CCCCSCCCNC(=O)c1cn(C)c2ccc(S(=O)(=O)N3CCCCCC3)cc2c1=O -6.35%
CC(C)Oc1cccc(C2CC(=O)Nc3cc4c(cc32)OCO4)c1 (stereo not given) -9.34%
CC(=O)c1ccc(Nc2ccc3cc(S(=O)(=O)N4CCCC4)ccc3n2)cc1 -2.46%
O=C(CCn1cnnn1)Nc1cc(C(F)(F)F)cc(C(F)(F)F)c1 -2.8%
CC(=O)c1nnn(-c2ccc(C)cc2Cl)c1C -9.81%
COc1ccc2c(c1)c1c(c(=O)n(-c3ccc(OC)c(OC)c3)c(=O)n1Cc1ccccc1F)n2C -9.56%
COc1cc(NC(=O)CSc2nccn2C)cc(OC)c1OC -22.8%
COc1cc(OC)c(NC(=O)c2nn(-c3ccc(C)cc3)c(=O)c3c2c2ccccc2n3C)cc1Cl -7.37%
O=C(Nc1cccc(C(=O)N2CCN(c3cccc(Cl)c3)CC2)c1)c1nsc2ccccc12 -11.7%
CCOc1ccc(C2c3c(oc4ccc(C)cc4c3=O)C(=O)N2CCCN(C)C)cc1 (stereo not given) -0.184%
CSc1ccc(CCNC(=O)C(C)n2nc(C)c3sc4ccccc4c3c2=O)cc1 (stereo not given) -11%
CCOC(=O)C1CCN(C(=O)c2ccc(NC(=O)c3nsc4ccccc34)cc2)CC1 -20.2%
O=C(NCc1ccccc1Cl)c1ccc(Cn2c(SCc3ccccc3)nc3cccnc32)cc1 -11.4%
Cc1ccccc1Cn1c2ccccc2c2cnn(CC(=O)NCC(C)c3ccccc3)c(=O)c21 (stereo not given) -7.5%
CCc1ccccc1NC(=O)c1ccc2c(SCC(=O)O)c3c(nc2c1)CCC3 4.7%
Cc1c(C)n(Cc2ccccc2)c2ccc(C(=O)OCCN(C)C)cc12 -7.89%
Cc1cc(C(=O)NCc2cccc(Br)c2)c2c(C)nn(-c3ccccc3)c2n1 -2.07%
CC(=O)N1c2ccc(S(=O)(=O)NCC3CCC(C(=O)Nc4ccc(C)c(C)c4)CC3)cc2CC1C (stereo not given) 5.32%
Cc1ccc(NC(=O)c2ccc(CNS(=O)(=O)c3ccc4c(c3)C(C)(C)C(=O)N4C)cc2)cc1C -3.83%
O=C(CCn1ccc2cc(S(=O)(=O)N3CCCC3)ccc21)NCc1cccc(Cl)c1 -3.6%
Cc1cc(C)c2c(-n3cccc3)c(C(=O)NCc3cccc(F)c3)sc2n1 -26.4%
CCOc1ccc(NC(=O)c2nc3nc(C)cc(C(F)F)n3n2)cc1 -14.1%
CCc1nnc(SCc2ccc(OC)cc2)c2cc3sc(C)cc3n12 -6.21%
COc1cc(CCNC(=O)c2ccc3c(c2)c(C)c(C)n3Cc2cccc(C)c2)cc(OC)c1OC -7.08%
COc1ccc(OC)c(Nc2ncnc3c2nc2n3CCCC2)c1 -6.43%
COCCCn1c(=N)c(C(=O)NCc2cccnc2)cc2c(=O)n3cc(C)ccc3nc21 -3.99%
CC(=O)N(CC(O)CN(C(C)=O)c1c(I)c(C(=O)NCC(O)CO)c(I)c(C(=O)NCC(O)CO)c1I)c1c(I)c(C(=O)NCC(O)CO)c(I)c(C(=O)NCC(O)CO)c1I (stereo not given) -8%
CCOc1ccccc1CNCc1c(C(=O)O)n(Cc2ccc(F)cc2)c2cc(C)ccc12 -7.82%
CC(=O)c1ccc(N2CCN(C(=O)CCn3cnc4onc(-c5ccc(F)cc5)c4c3=O)CC2)cc1 -12.2%
CCOc1ccccc1NC(=O)Nc1cc2c(cc1N1CCCCC1)n(CC)c(=O)n2CC -12.8%
CCOC(=O)c1ccc(NC(=O)CSc2nccn2-c2cc(C)cc(C)c2)cc1 -16.1%
O=C1CC(c2ccc(F)cc2)c2c(c3ccccc3[nH]c2=O)O1 (stereo not given) -11.8%
Cc1cc(C)cc(NC(=O)CNS(=O)(=O)c2ccc3nc(C)sc3c2)c1 9.79%
CCn1cc(C(=O)NCCc2ccc(C)cc2)c(=O)c2cc(S(=O)(=O)N3CCc4ccccc4C3)ccc21 -16.3%
O=C(Nc1c(-c2ccccc2)nc2ccccn12)c1ccccc1F 1.99%
Cc1ccc(-c2noc(-c3cc(-c4ccc(F)cc4)n[nH]3)n2)cc1 -21.8%
Cc1ccc(NC(=O)CN2C(=O)c3ccccc3Sc3ccc(C(=O)N4CCOCC4)cc32)c(Cl)c1 3.18%
CCN(C(=O)C1CCCN(c2ncnc3c2nc2n3CCCCC2)C1)c1cccc(C)c1 (stereo not given) -12.5%
CCOc1ccc(OC(=O)c2c(-c3ccccc3Cl)noc2C)cc1 -6.64%
CN1C(=O)Cc2cc(S(=O)(=O)CCC(=O)Nc3ccc(OC(F)(F)F)cc3)ccc21 5.51%
CCc1cc2c(cc3c(=O)n(CC(=O)NCc4cc(Br)ccc4OC)ncn32)s1 -7.25%
CCN(CC)S(=O)(=O)c1ccc2oc(C(=O)Nc3cc(C)ccc3OC)c(C)c2c1 -4.01%
COC(=O)CNC(=O)N1CCN(S(=O)(=O)c2ccc3c(ccn3C)c2)CC1 -1.66%
CCOc1ccc(-c2nnc(SCC(=O)c3ccccc3)n2-c2ccccc2)cc1 -4.69%
Cn1cccc1-c1cc2n(n1)CCC(=O)N2CCCC(=O)NCc1ccc(F)cc1 -18.2%
COc1ccc(C(=O)Nc2ccc3oc(-c4ccc5ccccc5c4)nc3c2)cc1Br 1.64%
CCCCNC(=O)CN1C(=O)COc2ccc(S(=O)(=O)N3CCCCCC3)cc21 -12.7%
CCOc1ccc(NC(=O)C2CCN(S(=O)(=O)c3c(C)noc3/C=C/c3cccs3)CC2)cc1 -12.2%
CCOC(=O)c1[nH]c(C)c(CCC(=O)Nc2cccc(SC)c2)c1C -8.42%
COc1ccc2cc(CNc3ccc(OC)c(OC)c3)c(=O)n(CC(=O)Nc3ccccc3F)c2c1 -18.6%
Cc1cccc(C)c1NC(=O)Cn1c(SCC(=O)NCc2ccccc2)nc2ccccc21 -10.3%
Cc1ccc(NC(=O)c2ncoc2-c2ccco2)cc1Cl -17.8%
Cc1cc(=O)[nH]c2nnc(SCc3ccc(C(F)(F)F)cc3)n12 -22%
Fc1cccc(Cl)c1CNCCSc1nnnn1-c1ccccc1 -27.4%
CC(C)CCNC(=O)c1ccc2c(c1)N(Cc1ccccc1F)C(=O)c1ccccc1S2(=O)=O -2.22%
O=C(Nc1cc2ccc(O)cc2oc1=O)c1ccccc1 -20.9%
O=S(=O)(c1ccc(-c2csc(=Nc3ccc(OC(F)(F)Cl)cc3)n2CCCO)cc1)N1CCCC1 -17%
O=C(CNC(=O)c1ccccc1F)OCc1cc(=O)n2nc(C3CCCCC3)sc2n1 2.21%
COc1cccc(C(=O)N(Cc2ccco2)c2ccccn2)c1 -10.2%
COc1ccc(OC)c(NC(=O)CSC2=Nc3ccccc3C3=NC(CC(=O)NCc4ccc(F)cc4)C(=O)N23)c1 (stereo not given) -11.3%
COc1ccc(C2CC(=O)c3c([nH]c(C(=O)OC4CCCCCC4)c3C)C2)cc1 (stereo not given) -21.2%
COc1cccc(OCC(=O)NC2CC(=O)N(c3ccc4c(c3)OCCO4)C2)c1 (stereo not given) -0.445%
COC(=O)c1ccccc1NC(=O)c1cc(C)nc2c1c(C)nn2-c1ccc(C)cc1 -10.3%
CC(C(=O)O)c1ccc(C(=O)c2ccccc2)s1 (stereo not given) -13.4%
COc1ccc2c(c1)c1c(c(=O)n(-c3ccc(OC)c(OC)c3)c(=O)n1CC(=O)N1CCCC1)n2C 24.3%
Cc1ccc(CNC(=O)CSc2ncc(S(=O)(=O)c3ccc(C)c(Cl)c3)c(=O)[nH]2)cc1 -13.4%
Cc1ccc(NC(=O)N2CCN(c3nnc(C)c4c(C)n(-c5ccc(Cl)cc5)nc34)CC2)c(C)c1 -6.71%
O=C(Nc1ccccc1O)c1cc(S(=O)(=O)N2CCCC2)ccc1Cl -10.8%
Cc1ccc(Cl)cc1NC(=O)NCc1cccn1Cc1ccc(F)cc1 -11.2%
Cc1ccc2nc(-c3ccc(NC(=O)c4ccccc4S(C)(=O)=O)cc3)sc2c1 -6.62%
COc1ccc(-c2nc(C)c(CCNC(=O)c3c(F)cccc3F)s2)cc1 -31.7%
CCOc1ccc(OCC)c(NC(=O)CCc2nc3cccnc3n2Cc2cccs2)c1 -4.7%
Cc1ccc(C)c(Cn2c(=O)n(CCC(=O)NCc3ccc4c(c3)OCO4)c(=O)c3sccc32)c1 -12.8%
Cc1cccc(Cc2c(C)nc3nc(SCc4ccccc4Cl)nn3c2C)c1 -1.3%
CN(C)c1ccc(CNC(=O)c2cnc3sc(N4CCCCCC4)nn3c2=O)cc1 1.16%
COC(=O)N1CCCc2cc(S(=O)(=O)N3CCN(c4ccccc4)CC3)ccc21 -17.1%
CCCCNC(=O)CCCn1c(=O)c2ccccc2n(Cc2c(C)cc(C)cc2C)c1=O -6.27%
COc1cc(Cl)c(C)cc1NC(=O)CSc1nc2c(c(=O)[nH]1)CCCC2 -9.12%
